These results are taken from the antibiotic and cytotoxicity screens of Wong et al. (2023).

This is one part of the list.

One test relates to HSkMC (human skeletal muscle cells). Briefly: cytotoxicity call (relative viability < 0.9). As to conditions: 10 µM.
For the compound `C[C@@H]1CN([C@@H](C)CO)C(=O)c2cccc(NS(=O)(=O)c3ccc(F)cc3)c2O[C@@H]1CN(C)Cc1ccncc1`, the cytotoxicity call was “inactive”. `COc1ccc(-c2oc3cc(OC)c(OC)c(OC)c3c(=O)c2OC)cc1`: the cytotoxicity call was “inactive”. The same measure, in the same setting: with `CCOC(=O)C(CCc1ccccc1)NC1CCc2ccccc2N(CC(=O)O)C1=O.Cl` (centres undefined) the entry was “inactive”; with `C[C@H](CO)N1C[C@H](C)[C@@H](CN(C)CC2CCCCC2)Oc2c(NC(=O)Nc3ccc(F)cc3)cccc2C1=O`, “inactive”; with `C[C@H]1CCCCO[C@@H](CN(C)Cc2ccc(C(=O)O)cc2)[C@@H](C)CN([C@@H](C)CO)C(=O)c2cc(NC(=O)c3ccccc3)ccc2O1`, “inactive”. On to `CCCNC(=O)N1C[C@H](O)COC[C@@H]2O[C@H](CC(=O)NCCCN3CCOCC3)CC[C@H]21`, for which the cytotoxicity call was “inactive”. In the case of `CCCc1cc(C(N)=S)ccn1`, the cytotoxicity call is “inactive”.

`CN(C)CCO[C@@H]1C[C@@H]2CN(S(=O)(=O)c3cn(C)cn3)CCN2C1`: the cytotoxicity call was “inactive”. The same measure, in the same setting: with `Cc1noc(C)c1S(=O)(=O)Nc1ccc2c(c1)CC(=O)N([C@H](C)CO)C[C@@H](C)[C@H](CN(C)S(=O)(=O)c1cn(C)cn1)O2` the entry was “inactive”.

In a further test the test system is HepG2. Briefly: cytotoxicity call (relative viability < 0.9). To be noted: 10 µM.
As for `CCS(=O)(=O)NCC[C@H]1CC[C@@H](NS(=O)(=O)c2ccccc2C)[C@H](CO)O1`, the cytotoxicity call was “inactive”. Still for that read-out and setting: with `C[C@@H]1CN([C@@H](C)CO)C(=O)Cc2cc(NS(=O)(=O)c3cn(C)cn3)ccc2O[C@@H]1CN(C)S(=O)(=O)c1cn(C)cn1` the entry was “inactive”. In the case of `COc1ccc(S(=O)(=O)Nc2cccc3c2O[C@@H](CN(C)Cc2ccc(-c4ccccc4)cc2)[C@@H](C)CN([C@@H](C)CO)C3=O)cc1`, the cytotoxicity call was “inactive”. On the same count and under the same terms, with `CC(C)=CCC/C(C)=C/CC1=C(C)C(=O)c2ccccc2C1=O` the entry was “inactive”; with `CN1C(=O)Cc2ccccc2C1=O`, “inactive”; with `CO[C@@H](CN(C)C(=O)c1ccc2c(c1)OCO2)[C@H](C)CN([C@@H](C)CO)S(=O)(=O)c1ccc(Cl)cc1`, “inactive”.

`CN(C)CCOC(C)(c1ccccc1)c1ccccn1.O=C(O)CCC(=O)O` (centres undefined): the cytotoxicity call is “inactive”. On the same count and under the same terms, next, `O=C(O)[C@@H]1C[C@H](C(F)(F)F)CN1`: “inactive”; `COc1ccc(S(=O)(=O)N(C)C[C@H]2Oc3ccc(NS(=O)(=O)c4ccccc4)cc3CC(=O)N([C@@H](C)CO)C[C@H]2C)cc1`: “inactive”. With `Cc1noc(C)c1NC(=O)Nc1ccc2c(c1)C(=O)N([C@H](C)CO)C[C@H](C)[C@@H](CN(C)C(=O)Nc1cccc3ccccc13)O2`, the cytotoxicity call was “inactive”. On to `C[C@@H]1CN([C@H](C)CO)C(=O)c2cc(NC(=O)c3ccncc3)ccc2O[C@@H](C)CCCCO[C@H]1CN(C)S(=O)(=O)c1cn(C)cn1`, for which the cytotoxicity call is “inactive”. As to `C[C@H](CO)N1C[C@H](C)[C@@H](CN(C)Cc2ccc(Cl)c(Cl)c2)OCCCC[C@H](C)Oc2ccc(NC(=O)Nc3ccccc3)cc2C1=O`, the cytotoxicity call is “active”. Still for that read-out and setting: with `CC(C)NC(=O)N(C)C[C@@H]1Oc2cc(C#Cc3cccc(F)c3)ccc2S(=O)(=O)N([C@@H](C)CO)C[C@H]1C` the entry was “inactive”; with `C[C@H](CO)N1C[C@H](C)[C@@H](CN(C)Cc2ccc(C(F)(F)F)cc2)OCCCC[C@H](C)Oc2ccc(NC(=O)Nc3cccc4ccccc34)cc2C1=O`, “active”. `COCC(=O)N(C)C[C@@H]1Oc2cc(C#Cc3cccnc3)ccc2S(=O)(=O)N([C@@H](C)CO)C[C@H]1C`: the cytotoxicity call was “inactive”. As to `N[C@@H]1CC[C@H](CCn2cc(C3CC3)nn2)O[C@@H]1CO`, the cytotoxicity call is “inactive”. As to `CN(C)CCCN1c2ccccc2Sc2ccccc21.Cl`, the cytotoxicity call is “active”. Regarding `O=C(NO)c1cccc(C(=O)N/N=C/[C@H](O)[C@@H](O)[C@H](O)[C@H](O)CO)c1`, the cytotoxicity call was “inactive”. Same read-out and setting: next, `C[C@H]1CN([C@@H](C)CO)C(=O)c2cc(NC(=O)C3CC3)ccc2O[C@H]1CN(C)S(=O)(=O)c1ccccc1`: “inactive”; `Cc1noc(C)c1S(=O)(=O)N(C)C[C@H]1OCCCC[C@H](C)Oc2ccc(N(C)C)cc2C(=O)N([C@@H](C)CO)C[C@@H]1C`: “inactive”; `Cc1ccc(S(=O)(=O)Nc2ccc3c(c2)CC(=O)N([C@@H](C)CO)C[C@@H](C)[C@@H](CN(C)C(=O)Nc2ccc(C(F)(F)F)cc2)O3)cc1`: “inactive”. With `Cc1noc(C)c1S(=O)(=O)N(C)C[C@H]1OCCCC[C@@H](C)Oc2ccc(NC(=O)Nc3ccccc3)cc2C(=O)N([C@H](C)CO)C[C@@H]1C`, the cytotoxicity call is “inactive”. The same measure, in the same setting: next, `COc1ccc2c3c([nH]c2c1)[C@H](CO)N(C[C@]13CCN(CC1)S(=O)(=O)c1ccccc1)C(=O)c1cnccn1`: “inactive”; `COCC#Cc1cnc2c(c1)C(=O)N([C@H](C)CO)C[C@H](C)[C@@H](CN(C)S(=O)(=O)c1cn(C)cn1)O2`: “inactive”. With `C[C@H]1CN([C@@H](C)CO)C(=O)c2cccc(NC(=O)Nc3cccc4ccccc34)c2O[C@H]1CN(C)C(=O)Nc1ccc(C(F)(F)F)cc1`, the cytotoxicity call is “active”. Regarding `COc1ccc(CN(C)C[C@@H]2OCCCC[C@@H](C)Oc3ccc(NS(=O)(=O)c4ccc(Cl)cc4)cc3C(=O)N([C@@H](C)CO)C[C@@H]2C)cc1`, the cytotoxicity call is “inactive”. As to `COC(=O)c1cn(CC(=O)Nc2ccon2)nn1`, the cytotoxicity call is “inactive”. Still for that read-out and setting: next, `CN1CCN(S(=O)(=O)c2ccc(CN)cc2)CC1`: “inactive”.

As to `Cc1ccc(S(=O)(=O)N(C)C[C@@H]2OCCCC[C@H](C)Oc3ccc(NC(=O)Nc4ccc5c(c4)OCO5)cc3C(=O)N([C@@H](C)CO)C[C@H]2C)cc1`, the cytotoxicity call is “inactive”. Regarding `C[C@H]1CC/C=C\[C@H]2O[C@@]34C=CCN(CCN5CCOCC5)C(=O)[C@H]3N(CCO)C(=O)[C@@H]4[C@@H]2C(=O)O1`, the cytotoxicity call is “inactive”. Still for that read-out and setting: with `CO[C@H]1CN(C)C(=O)c2cc(NC(=O)C3CC3)ccc2OC[C@@H](C)N(C(=O)Cc2ccccn2)C[C@H]1C` the entry was “inactive”.

As to `C[C@@H]1CN([C@@H](C)CO)C(=O)c2cccc(NS(=O)(=O)c3ccc(F)cc3)c2O[C@@H]1CN(C)Cc1ccncc1`, the cytotoxicity call is “inactive”.

As for `COc1ccc(-c2oc3cc(OC)c(OC)c(OC)c3c(=O)c2OC)cc1`, the cytotoxicity call is “inactive”. The same measure, in the same setting: with `CCOC(=O)C(CCc1ccccc1)NC1CCc2ccccc2N(CC(=O)O)C1=O.Cl` (centres undefined) the entry was “inactive”; with `C[C@H](CO)N1C[C@H](C)[C@@H](CN(C)CC2CCCCC2)Oc2c(NC(=O)Nc3ccc(F)cc3)cccc2C1=O`, “inactive”. On the same count and under the same terms, with `C[C@H]1CCCCO[C@@H](CN(C)Cc2ccc(C(=O)O)cc2)[C@@H](C)CN([C@@H](C)CO)C(=O)c2cc(NC(=O)c3ccccc3)ccc2O1` the entry was “inactive”; with `CCCNC(=O)N1C[C@H](O)COC[C@@H]2O[C@H](CC(=O)NCCCN3CCOCC3)CC[C@H]21`, “inactive”; with `CCCc1cc(C(N)=S)ccn1`, “inactive”. The same measure, in the same setting: next, `CN(C)CCO[C@@H]1C[C@@H]2CN(S(=O)(=O)c3cn(C)cn3)CCN2C1`: “inactive”; `Cc1noc(C)c1S(=O)(=O)Nc1ccc2c(c1)CC(=O)N([C@H](C)CO)C[C@@H](C)[C@H](CN(C)S(=O)(=O)c1cn(C)cn1)O2`: “inactive”.
